Measurements published in paper PMC4336329 (PLoS ONE, 2015).
Hit rate of the full screen: of about 310,000 compounds, about 2,200 (0.71%) showed an effect of 50% or more. The effect is printed as a negative number. Some of the results follow.

target: human ether-à-go-go-related gene (hERG) potassium channel (human, UniProt Q12809); test: primary screen, population patch clamp on CHO cells stably expressing hERG
Sequence (Q12809 whole entry, looked up): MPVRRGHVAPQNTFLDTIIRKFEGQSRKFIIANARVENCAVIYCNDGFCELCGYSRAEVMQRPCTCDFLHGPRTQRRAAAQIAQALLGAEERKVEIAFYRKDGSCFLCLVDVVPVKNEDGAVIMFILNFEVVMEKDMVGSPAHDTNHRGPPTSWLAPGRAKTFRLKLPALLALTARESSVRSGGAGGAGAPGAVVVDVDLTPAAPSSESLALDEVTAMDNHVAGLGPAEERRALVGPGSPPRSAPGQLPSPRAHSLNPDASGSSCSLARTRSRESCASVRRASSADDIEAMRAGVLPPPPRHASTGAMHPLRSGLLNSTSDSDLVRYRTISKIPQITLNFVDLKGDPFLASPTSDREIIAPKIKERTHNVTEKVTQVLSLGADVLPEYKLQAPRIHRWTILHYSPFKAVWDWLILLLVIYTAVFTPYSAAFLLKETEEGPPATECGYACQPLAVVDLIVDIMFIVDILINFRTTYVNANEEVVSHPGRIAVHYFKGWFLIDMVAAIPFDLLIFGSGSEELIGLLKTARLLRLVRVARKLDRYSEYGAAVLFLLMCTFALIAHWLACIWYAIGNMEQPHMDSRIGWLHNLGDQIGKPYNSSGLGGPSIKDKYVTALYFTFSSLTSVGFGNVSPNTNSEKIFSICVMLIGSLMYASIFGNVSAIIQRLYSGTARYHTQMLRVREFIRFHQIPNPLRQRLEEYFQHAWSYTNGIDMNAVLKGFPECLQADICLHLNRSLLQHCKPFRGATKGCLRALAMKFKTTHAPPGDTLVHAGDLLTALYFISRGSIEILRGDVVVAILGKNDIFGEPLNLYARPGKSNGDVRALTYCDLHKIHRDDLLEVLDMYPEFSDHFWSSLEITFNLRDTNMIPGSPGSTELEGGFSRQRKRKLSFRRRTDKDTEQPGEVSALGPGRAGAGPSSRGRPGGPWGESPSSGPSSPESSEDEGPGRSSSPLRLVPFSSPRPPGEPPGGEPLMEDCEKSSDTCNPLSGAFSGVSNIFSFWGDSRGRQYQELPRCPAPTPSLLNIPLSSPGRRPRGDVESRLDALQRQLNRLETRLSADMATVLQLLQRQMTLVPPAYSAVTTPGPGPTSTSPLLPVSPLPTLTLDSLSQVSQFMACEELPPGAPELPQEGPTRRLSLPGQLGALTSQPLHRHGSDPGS

| Compound | hERG current change (%, negative = inhibition) at 1uM [%] |
| --- | --- |
| Cc1ccc(NC(=S)Nc2ccc(S(=O)(=O)Nc3ncccn3)cc2)c(C)c1 | 8.54 |
| O=C(CCS(=O)(=O)c1cccc2nonc12)NCCc1ccccc1 | 7.02 |
| Cc1c(C=Nc2ccc(S(=O)(=O)CCO)cc2)c(O)[nH]c(=O)c1C#N | 17 |
| Cc1ccc(-n2nc3c(=O)n(CCCC(=O)N4CCCCC4)nc(C)c3c2C)cc1 | -9.99 |
| CC(=O)c1c(C)c2c(n1CCN(C)C)CCCC2.Cl | 6.44 |
| Cc1ccc(C(=O)Nc2cc(-c3ccn[nH]3)c(C)n(N)c2=O)cc1 | 20.1 |
| C/C(CC(=O)Nc1ccc(Cl)c(C(F)(F)F)c1)=N\NC(=O)c1ccccc1O | 1.48 |
| Cc1cc(C)n(S(=O)(=O)c2ccc3ccccc3c2)n1 | 0.267 |
| Cc1ccc(NC(=O)CSc2nncn2N)cc1C | 9.38 |
| COC(=O)Cn1c(=O)cnc2ccccc21 | 9.02 |
| Cc1ccc(CCNC(=O)C23CN(Cc4ccccc4)CC2C(c2cccc([N+](=O)[O-])c2)=NO3)cc1 (stereo not shown) | 17.7 |
| CCC(c1nnnn1C(C)(C)C)N1CCN(C(=O)c2ccco2)CC1 (stereo not shown) | 11.3 |
| CCOc1ccc(CNC(=O)CCCC(=O)n2ncc3cc(C)ccc32)cc1 | 19 |
| CC(=O)c1cc2c(cc1NC(=O)c1cnc(C)cn1)OCO2 | 5.03 |
| CC(Sc1nnc(-c2ccco2)n1C)C(=O)Nc1nccs1 (stereo not shown) | -8.78 |
| COc1ccc(-c2nc(SCc3ccccc3)n(C(=O)c3ccco3)n2)cc1 | 15.4 |
| O=C1Nc2ccccc2C1(c1ccccc1)c1ccccc1 | 2.73 |
| O=c1ccc2ccc(O[C@@H]3O[C@H](CO)[C@@H](O)[C@H](O)[C@H]3O)c(O)c2o1 | 14.6 |
| C=CCCC(=O)N(C)CCO | 15.1 |
| Cc1coc2c(C)c3oc(=O)c(CCC(=O)NCCCN4CCCC4=O)c(C)c3cc12 | -1.75 |
| Cc1cc(C(=O)Nc2nc(-c3ccccn3)cs2)ccc1[N+](=O)[O-] | 12.8 |
| OCC[C@H]1C[C@@H](O)[C@H](O)[C@@]2(Cc3ccccc3O2)O1 | 17.3 |

| Compound | hERG current change (%, negative = inhibition) at 1uM [%] |
| --- | --- |
| N=C1C(c2nc3ccccc3s2)=C(O)CN1NC(=O)c1c[nH]c2ccccc12 | 10.2 |
| CC(=O)N1c2ccc(Cl)cc2C2OCCC2C1c1ccco1 (stereo not shown) | 14.9 |
| O=C(Cc1ccc(Cl)cc1)Nc1ccccc1CO | 10.8 |
| COC(=O)c1cc2c(ccn2-c2ccc(F)cc2)n1Cc1ccc(OC)cc1 | 0.901 |
| COc1cccc(CNC(=O)C(=O)NCCC2CCCCN2S(=O)(=O)c2ccccc2)c1 (stereo not shown) | -9.44 |
| CCCN(CC(=O)Nc1cccc(Br)c1)CC(=O)Nc1ccc(F)c(F)c1F | 12.1 |
| CSCC[C@H](NC(=O)C1CCCC1)c1nc2ccccc2[nH]1 | 14.8 |
| CC1CCC2C(=O)N(c3ccc(NC4CCCCC4)c([N+](=O)[O-])c3)C(=O)C2C1 (stereo not shown) | 2.74 |
| CN1C(=O)C2(c3ccccc31)c1c(oc3ccccc3c1=O)C(=O)N2CCCO (stereo not shown) | 14 |
| CC(O)(CS(=O)(=O)Cc1ccc(Cl)cc1)C(=O)Nc1cccc(C(F)(F)F)c1 (stereo not shown) | 5.57 |
| COC(=O)C1(C)NC(c2ccccc2OC)C2C(=O)N(c3ccccc3)C(=O)C21 (stereo not shown) | 11.1 |
| COc1cccc(/C=N/NC(=O)c2cc3c(OC)cccc3[nH]2)c1O | 21.1 |
| COc1ccc(CCNS(=O)(=O)c2ccc(F)cc2)cc1OC | 7.53 |
| COc1ccc(N(C)C(=O)Nc2ccc3c(c2)nnn3C)cc1 | 11 |
| COc1ccccc1NC(=O)COC(=O)[C@@H]1CCCN1C(=O)c1cccs1 | -6.5 |
| COC(=O)c1nc(NC(C)=O)n[nH]1 | 8.34 |
| COC(=O)C1=C(N)OC(C)=C(C(C)=O)C12C(=O)N(C)c1ccccc12 (stereo not shown) | 3.92 |
| CC(=O)Nc1ccc(NC(=O)CC(NC(=O)c2ccccc2)c2ccccc2)cc1 (stereo not shown) | 11.7 |
| Cc1ccc(NC(=O)CCN2CCN(C)CC2)cc1.Cl | 14.9 |
| C=CCn1c(CCc2cc(C(C)(C)C)c(O)c(C(C)(C)C)c2)n[nH]c1=S | 14.6 |
| CC1CCN(c2nc(Cl)nc(Nc3ccc([N+](=O)[O-])cc3)n2)CC1 | 4.37 |
| Cc1sc2nc(-c3ccc(Br)cc3)oc(=O)c2c1C | 12.8 |

| Compound | hERG current change (%, negative = inhibition) at 1uM [%] |
| --- | --- |
| O=C(CNC(=O)c1cccs1)N/N=C/c1c(F)cccc1Cl | 21.4 |
| CC(C)CN1CCC(=O)N([C@H](CSc2ccccc2)Cc2ccccc2)CC1 | -27.8 |
| O=S(=O)(Cc1ccc(Cl)cc1)c1ncc(CO)n1Cc1ccccc1 | 4.54 |
| CN(C)S(=O)(=O)c1ccc(N2CCCC2)c(C(=O)NNC(=O)c2ccc(Br)cc2)c1 | 3 |
| C=CCn1c(=O)c2ccccc2n2c(SCC(=O)Nc3sc(C(=O)N(CC)CC)c(C)c3C(=O)OCC)nnc12 | -1.5 |
| CC12CC(c3ccccc3O1)C(C(=O)N1CCOCC1)C(=O)N2 (stereo not shown) | 0.187 |
| O=C(CN1CCN(S(=O)(=O)c2ccccc2)CC1)NCc1ccccc1 | 15.2 |
| CCCOc1nc2c(c(=O)n(C)c(=O)n2C)n1CCC | 14.6 |
| Cn1c(=O)c2ncn(CC(=O)NCCC3=CCCCC3)c2n(C)c1=O | 9.17 |
| C/C=C\C=C\C(=O)N1CC2(CC(c3cccc(NC(=O)CC(c4ccccc4)c4ccccc4)c3)=NO2)C[C@H]1C(N)=O (stereo partly shown) | -0.331 |
| Cc1c(Cl)cccc1NC(=O)CCN1CCOCC1 | 22.1 |
| Oc1ccc(/C=N/n2cc(-c3ccccc3)[nH]c2=S)cc1 | 7.7 |
| CCCCCCNc1c([N+](=O)[O-])c(=O)sc2ccccc12 | 14.1 |
| Cc1ccc(S(=O)(=O)N2CCCC(C(=O)NCc3ccco3)C2)cc1Cl (stereo not shown) | 6.95 |
| Cc1cc(C)c2oc(C(=O)NCc3ccccc3)cc(=O)c2c1 | 17 |
| O=c1[nH]c(O)c(N=Nc2ccc(SC(F)F)cc2)c(=O)[nH]1 | 4.58 |
| Cc1ccc(NS(=O)(=O)c2ccc(NS(=O)(=O)c3cccs3)cc2)cc1 | 18 |
| C#CCOCCOCCOCCNc1nc(N2CCOCC2)nc(N2CCN(C(=O)CCCCCCCCCCNC(=O)Cn3cc(CCCCCN)nn3)CC2)n1 | 14.2 |
| CCOC(=O)N1CCN(C(=O)c2ccc3c(Cl)c4c(nc3c2)CCCC4)CC1 | -1.71 |
| COc1ccc(Cc2nc3ccc(C(=O)N(C)C(C)c4nccs4)cc3o2)cc1 (stereo not shown) | 16.5 |
| COCCCN1C(=O)C(=O)/C(=C(/O)c2ccc(OC(C)C)c(C)c2)C1c1ccncc1 (stereo not shown) | 3.05 |
| O=C(N=Nc1c(O)[nH]c2ccc(Br)cc12)c1ccccc1-n1cccc1 | 0.48 |

| Compound | hERG current change (%, negative = inhibition) at 1uM [%] |
| --- | --- |
| COc1ccc(NC(=O)N2CCN(c3nc4ccccc4n3C(C)C)CC2)cc1 | 10.2 |
| CC(OC(=O)C1=Cc2ccccc2OC1)C(=O)NC(C)(C)C (stereo not shown) | 19.7 |
| CCOc1ccc(C(=O)NC(C(=O)NCC(c2cccs2)N(C)C)C(C)C)cc1 (stereo not shown) | 5.72 |
| Cn1c(O)c(C=Nc2cccc(C(F)(F)F)c2)c(=O)n(C)c1=O | 13.2 |
| C=CCSc1nnc(C)n1-c1ccc(Cl)cc1 | 9.72 |
| O=S(=O)(NCc1ccccn1)c1ccccn1 | 3.23 |
| C/C(=N\Nc1cccc([N+](=O)[O-])c1)c1ccccc1O | 6.66 |
| CCOc1ccccc1NC(=O)c1ccc(S(=O)(=O)N(C)c2ccccc2)cc1 | 6.05 |
| O=C(NCCCn1ccnc1)/C(=C/c1cccnc1)NC(=O)c1ccco1 | 7.85 |
| S=c1[nH]nc(-c2cc(-c3ccco3)[nH]n2)n1-c1ccccc1 | 3.15 |
| CCOC(=O)c1cc(-c2ccccc2)n(CC(=O)NC(C)(C)C)c1C | 7.97 |
| CC(C)(C)C(=O)NC(=C(Cl)Cl)P(=O)(O)O | 13.2 |
| CC(C)C1(C)C(=O)N=C2c3ccccc3C(=O)N21 (stereo not shown) | 12.8 |
| CCC1Oc2ccc(C)cc2N(CC(=O)N(Cc2ccc3c(c2)OCO3)CC2CCCO2)C1=O (stereo not shown) | -2.42 |
| COc1ccc(S(=O)(=O)N2CCOC2CNC(=O)C(=O)NCc2cccnc2)cc1OC (stereo not shown) | 4.87 |
| CC(=O)c1ccc(N2CCN(C(=O)CCCn3c(=O)[nH]c4ccc(Br)cc4c3=O)CC2)cc1 | 1.18 |
| O=C(NCC(c1ccco1)N1CCOCC1)c1ccccc1 (stereo not shown) | 19.5 |
| CC1CCCCC1NC(=O)Cn1nnc(-c2ccc(Cl)cc2)n1 (stereo not shown) | 5.44 |
| COc1ccc(NC(=O)CNC(=O)c2ccco2)cc1 | 10.1 |
| COc1ccc(/C=N/NC(=O)c2nn(C)cc2Br)cc1CSCc1ccco1 | -14.4 |
| CCc1cc(=O)[nH]c(SCC(=O)N2CCCC2)n1 | 6.42 |
| Cc1nc(COc2cccc(Cl)c2)sc1C(=O)/C=C/N(C)C | 2.94 |
